About 7,500 (2.1%) of roughly 360,000 compounds were called active. The shares of active, inactive and inconclusive entries below differ from those in the screen. Calls follow the shape of the dose curve; as a rule, active = well fitted cell-killing curve with a large enough effect; inconclusive = small, poorly fitted or top-dose-only effect, or effect the other way, or another doubt; inactive = no such curve, though single readings can be large or run the other way. No potency is given beside an inconclusive call; the fits are too rough.
Experiment: qHTS for induction of synthetic lethality in tumor cells producing 2HG: qHTS for the HT-1080-IDH1KD cell line;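 as to activity, negative = toxicity: 0% = DMSO wells and -100% = cell-free medium wells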
Settings: HT-1080 IDH1 knockdown viability, ATP luminescence, 48 h; activity, negative = toxicity: at 46.1 µM (top of the series) unless noted
Outline: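 After a 2 h attachment period, IDH1KD HT-1080 cells took pin-transferred compound for 48 h at 37 °C; ATP-based luminescence after 10 min room-temperature reagent incubation reported viability.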
Potency is read from the fitted curve at half-maximal effect; tags tell the direction and shape of the fitted curve.

SMILES | Potency | activity, negative = toxicity
COc1cccc(N2CCN(c3ncnc4c3cnn4-c3ccc(C)cc3C)CC2)c1 | inconclusive [cytotoxic, single point] | –
CCc1ccc(-c2csc(NC(=O)c3cccnc3)n2)cc1 | inconclusive [cytotoxic, single point] | –
COc1ccccc1[C@H]1C(c2cccc(C)c2)=NN(c2ccccc2)[C@@H]1CO | inconclusive [cytotoxic, single point] | –
Cc1cc(N2CCCC2)ccc1NC(=O)COc1cccc(C(F)(F)F)c1 | inconclusive [cytotoxic, partial curve] | –
CC(=O)Nc1cc(Br)ccc1O | inactive | –
Cc1ccc(OCC(O)Cn2c(=N)n(CCN3CCCCC3)c3ccccc32)cc1 (configuration not stated) | inconclusive [cytotoxic, single point] | –
CC1(C(=O)NCc2cccc(C(F)(F)F)c2)CCN1Cc1cc2ccccc2o1 (configuration not stated) | inconclusive [cytotoxic, single point] | –
CC(=O)N1CCOc2ccc(S(=O)(=O)NCCc3ccccc3)cc21 | inactive | –
COc1cc(CNCCc2ccccc2F)ccc1OCc1ccc(Cl)nc1 | inconclusive [cytotoxic, single point] | –
C/C(=N\NC(=O)c1cc(Br)ccc1O)c1ccccn1 | inconclusive [cytotoxic, partial curve] | –
CCOC(=O)c1cnc2ccc(OCC)cc2c1N1CCN(c2ccccc2OC)CC1 | inconclusive [cytotoxic, single point] | –
N=c1n(CCN2CCCCC2)c2ccccc2n1CC(O)c1cccc(Br)c1 (configuration not stated) | inconclusive [cytotoxic, single point] | –
Cc1c(N/C=C/C(=O)c2ccc(Cl)cc2)c(=O)n(-c2ccccc2)n1C | inconclusive [cytotoxic, single point] | –
Cc1ncoc1C(=O)Nc1ccc2c(c1)OCCO2 | inconclusive [cytotoxic, single point] | –
Cc1cc(=O)n(CC(=O)Nc2cc(Cl)ccc2C)c(C(C)C)n1 | inactive | –
O=C(N/N=C/c1ccc(O)cc1)c1ccc(COc2cc(Cl)ccc2Cl)o1 | inconclusive [cytotoxic, partial curve] | –
Cc1cc(C)c2cc(N)c(Cl)nc2n1 | inconclusive [rising, single point] | –
C=CCN(CC=C)S(=O)(=O)c1ccc2nc(NC(=O)C3CCCO3)sc2c1 (configuration not stated) | inconclusive [cytotoxic, single point] | –
O=C(O)c1cc(-c2ccc(/C=N/Nc3ccc([N+](=O)[O-])cn3)o2)ccc1Cl | – | inconclusive: -30.3% [cytotoxic]
O=[N+]([O-])c1ccc(Oc2ccc(C(F)(F)F)cn2)cc1 | inactive | –
O=C(CSC1=Nc2ccccc2C2CC=NN12)Nc1ccc2c(c1)OCO2 (configuration not stated) | inconclusive [cytotoxic, single point] | –
CC(C)(C)OC(=O)N1CCC(c2c(C(=O)NCC3CCN(C4CCCC4)C3)cnn2-c2cccc(Cl)c2)CC1 (configuration not stated) | active: 18.4 µM | –
CCc1ccc(-c2cc(C(=O)O)c3ccccc3n2)s1 | inactive | –
O=C1CSc2ccccc2N1Cc1ccc(F)cc1 | inconclusive [cytotoxic, single point] | –

SMILES | Potency | activity, negative = toxicity
Cc1cccc(OCc2n[nH]c(=S)n2C2CCCCC2)c1 | inconclusive [cytotoxic, partial curve] | –
COc1ccccc1NC(=O)c1ccc([N+](=O)[O-])o1 | inconclusive [cytotoxic, single point] | –
O=C(COC(=O)c1c2c(nc3ccccc13)CCCC2)Nc1ccc2c(c1)OCO2 | inconclusive [cytotoxic, single point] | –
CCn1c(SC)nc2cc(S(=O)(=O)N3CCCCC3)ccc21 | inconclusive [cytotoxic, single point] | –
COc1ccc(-c2cc(C(=O)N3CCN(c4ccccn4)CC3)c3ccccc3n2)cc1 | inconclusive [cytotoxic, single point] | –
Cn1cnc2nc(Cl)nc(Cl)c21 | inconclusive [cytotoxic, full curve] | –
C=CCN(c1ccccc1OC)S(=O)(=O)c1ccc(Cl)c(C(=O)Nc2ccc(N3CCOCC3)cc2)c1 | inconclusive [cytotoxic, partial curve] | –
COC(=O)c1c(NC(=S)NN2CCOCC2)sc2c1CCCC2 | inactive | –
Cc1cccc(NC(=O)C2CCN(C(=O)NCc3ccccc3)CC2)c1C | inactive | –
O=C(Nc1cccc(C(F)(F)F)c1)Nc1ccc(N2CCCC2)c(S(=O)(=O)Nc2ccccc2Cl)c1 | active: 8.2 µM | –
Cc1onc(-c2ccccc2Cl)c1C(=O)N(Cc1nc(-c2ccccc2)no1)C1CCCCC1 | inconclusive [cytotoxic, single point] | –
CCc1c(C)nc2cc(-c3ccc(OC)c(OC)c3)nn2c1N1CCCC1 | inactive | –
Cc1nn(-c2ccccc2)nc1CNC(=O)c1ncoc1-c1ccccc1 | inconclusive [cytotoxic, single point] | –
COc1ccc(C2NC(=O)c3ccccc3O2)cc1 (configuration not stated) | inactive | –
CCCCn1c(SCC(=O)N2c3ccccc3Sc3ccccc32)nc2c1c(=O)n(C)c(=O)n2C | inconclusive [cytotoxic, partial curve] | –
Cc1ccccc1OCc1nnc(SCc2cc(=O)[nH]c3ccccc23)o1 | inactive | –
COc1ccccc1NC(=O)N1CCC(c2nc3cc(C)c(C)cc3[nH]2)CC1 | active: 5.8 µM | –
COc1cc(S(=O)(=O)NCc2ccncc2)c(OC)cc1Cl | inconclusive [cytotoxic, single point] | –
O=C(CCN1C(=O)/C(=C\C=C\c2ccccc2)SC1=S)Nc1cccc(C(=O)O)c1 | inconclusive [cytotoxic, partial curve] | –
CC1CCc2c(C(=O)Oc3cccc(-n4cnnn4)c3)csc2C1 (configuration not stated) | inconclusive [cytotoxic, single point] | –
O=C1NC(c2ccccc2Cl)Nc2ccccc21 (configuration not stated) | inconclusive [cytotoxic, partial curve] | –
COc1ccc(C(=O)Nc2ccc(N3CCCC3)cc2)cc1OC | inconclusive [cytotoxic, full curve, poor fit] | –
Cc1ccc(NC(=O)C2CC(=O)N(c3ccc4c5c(cccc35)CC4)C2)cc1 (configuration not stated) | inconclusive [cytotoxic, single point] | –
CCn1c(-c2ccccc2)c(C(=O)CCl)c2ccccc21 | active: 20.6 µM | –

SMILES | Potency | activity, negative = toxicity
c1ccc(C[n+]2csc3ccccc32)cc1 | inconclusive [cytotoxic, single point] | –
COc1ccc(C(=O)N2CCN(Cc3ccc4c(c3)OCO4)CC2)cc1OC | inconclusive [cytotoxic, single point] | –
CC(COc1ccc(/C=C/c2ccccc2)cc1)[N+](C)(C)C (configuration not stated) | inconclusive [cytotoxic, single point] | –
ClCCn1cnc2c(SCc3ccccc3Cl)ncnc21 | inconclusive [cytotoxic, full curve] | –
CCCCNS(=O)(=O)NC(=O)C1=C(N2CCCC2)COC1=O | inactive | –
COc1ccc(NC(=O)c2ccc(NC(=O)CCS(=O)(=O)c3cccs3)cc2)cc1 | inconclusive [cytotoxic, single point] | –
COc1ccc(CCNc2oc(COc3ccccc3F)nc2C#N)cc1OC | inconclusive [cytotoxic, single point] | –
CC(=O)c1cccc(NC(=O)C2(C)Cc3c(-c4cccc(C(N)=O)c4)ccnc3O2)c1 (configuration not stated) | inconclusive [cytotoxic, single point] | –
Cc1ccc(S(=O)(=O)N(c2nc(NC(C)C)nc(NC(C)C)n2)n2cnnc2)cc1 | inactive | –
COc1cccc(C(=O)Nc2ccc(C(=O)O)cc2)c1 | inactive | –
COCCNC(=O)c1c(CS(=O)(=O)c2ccccc2)noc1C(=O)NCc1ccccc1 | inactive | –
COc1ccccc1C(=O)Nc1ccnn1C1CCN(C2CCCCC2)CC1 | inactive | –
Cc1c(/C=N/NC(=O)c2ccccc2O)c2ccccn2c1C(=O)c1ccc(F)cc1 | inconclusive [cytotoxic, single point] | –
COc1ccc(C(CNC(=O)Cc2ccc(-c3ccccc3)cc2)N(C)C)cc1 (configuration not stated) | active: 20.6 µM | –
O=C(CCc1ccccc1)Nc1ccccc1F | inactive | –
CC1CCN(c2c(NCc3ccc(C(=O)N(C)C4CCCCC4)cc3)c(=O)c2=O)CC1 | inactive | –
Cc1ccc(F)cc1-c1nc(NC(C)C)nc2cc(-c3ccccc3)sc12 | inconclusive [cytotoxic, single point] | –
CCN1CCN(Cc2ccc(NC(=O)c3cc(NC(=O)c4cnn(-c5ccccc5)c4N)cc(OC)c3)cc2C(F)(F)F)CC1 | active: 18.4 µM | –
O=C(CSc1nnc2scc(-c3ccccc3)n12)Nc1nsc(-c2ccccc2)n1 | inconclusive [cytotoxic, single point] | –
COC(=O)[C@@H](NS(=O)(=O)c1cc(Br)ccc1Br)C(C)C | inactive | –
COc1ccc(S(=O)(=O)NC(C)C(=O)N2CCCC2)cc1C (configuration not stated) | inactive | –
Cc1cccc(C(=O)NNC(=S)NC(=O)c2cccs2)c1 | inconclusive [cytotoxic, single point] | –
CC(C)(C)OC(=O)N1CCC(C(=O)Nc2cccc(C(=O)N3CCCC3)c2)CC1 | inactive | –
CCCc1nc2c3ccccc3ccn2c1CC1CCCCC1 | inconclusive [cytotoxic, single point] | –
